Article PMC4336329 (PLoS ONE, 2015)
About 2,200 (0.71%) of roughly 310,000 compounds showed an effect of 50% or more. Effects have a minus sign here. This is one part of the list.

target: human ether-à-go-go-related gene (hERG) potassium channel (human, UniProt Q12809); assay: primary screen, population patch clamp on CHO cells stably expressing hERG
Sequence (Q12809 whole entry, looked up): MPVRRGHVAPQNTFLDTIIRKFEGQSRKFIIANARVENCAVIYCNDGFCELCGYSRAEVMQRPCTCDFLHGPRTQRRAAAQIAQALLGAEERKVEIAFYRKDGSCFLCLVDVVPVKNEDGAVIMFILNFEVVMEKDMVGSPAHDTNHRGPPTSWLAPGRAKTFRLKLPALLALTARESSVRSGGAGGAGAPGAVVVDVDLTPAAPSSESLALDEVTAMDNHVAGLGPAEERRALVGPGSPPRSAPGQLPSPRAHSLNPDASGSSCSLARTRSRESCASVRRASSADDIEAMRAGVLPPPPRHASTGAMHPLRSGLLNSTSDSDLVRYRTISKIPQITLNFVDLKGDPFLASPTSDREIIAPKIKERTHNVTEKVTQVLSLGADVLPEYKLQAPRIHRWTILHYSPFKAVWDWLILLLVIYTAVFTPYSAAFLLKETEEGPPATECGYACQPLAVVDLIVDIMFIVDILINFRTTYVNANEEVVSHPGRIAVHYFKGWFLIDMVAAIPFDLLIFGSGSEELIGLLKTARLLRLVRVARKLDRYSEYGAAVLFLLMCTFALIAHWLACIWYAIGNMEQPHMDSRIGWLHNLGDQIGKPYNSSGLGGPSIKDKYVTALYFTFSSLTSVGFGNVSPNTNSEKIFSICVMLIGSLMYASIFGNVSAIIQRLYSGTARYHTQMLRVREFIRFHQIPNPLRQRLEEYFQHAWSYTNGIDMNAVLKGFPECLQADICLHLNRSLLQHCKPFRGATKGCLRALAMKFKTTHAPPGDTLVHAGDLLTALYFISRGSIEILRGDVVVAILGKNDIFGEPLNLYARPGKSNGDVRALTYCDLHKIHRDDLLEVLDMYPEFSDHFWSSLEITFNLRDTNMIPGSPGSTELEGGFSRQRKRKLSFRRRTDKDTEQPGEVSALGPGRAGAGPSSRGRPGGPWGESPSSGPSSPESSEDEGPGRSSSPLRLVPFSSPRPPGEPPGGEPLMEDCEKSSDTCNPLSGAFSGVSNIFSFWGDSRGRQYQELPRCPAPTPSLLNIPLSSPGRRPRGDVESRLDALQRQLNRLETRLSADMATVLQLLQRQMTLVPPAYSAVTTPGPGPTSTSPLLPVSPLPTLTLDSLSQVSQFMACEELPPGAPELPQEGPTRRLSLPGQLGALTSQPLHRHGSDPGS

Compound | hERG current change (%, negative = inhibition) at 1uM [%]
N#Cc1c(-c2ccncc2)cc(-c2ccc(F)cc2)nc1N | 12.3
O=C(OCC(=O)N(C1CCCCC1)C1CCCCC1)c1ccncc1 | -0.498
Cn1cc(/C=C(\NC(=O)c2ccccc2)C(=O)NCCN2CCOCC2)c2ccccc21 | 18.3
COc1ccc(-c2nnc(SC(C)C(=O)Nc3cccc(Cl)c3)o2)cc1 (stereo not shown) | 7.51
NC(=O)c1ccccc1N/C=C/C(=O)c1ccccc1 | 13.6
O=S(=O)(Nc1ccc(Cl)cc1)c1cccc2cccnc12 | 11.5
Cc1ccc(-c2cc(C(=O)NCc3ccco3)c3ccccc3n2)s1 | 7.12
COc1cccc(/C=N/n2c(=S)n(C)c3ccccc32)c1OC | 1.69
Cc1cc(C)nc(NC(=O)c2csnn2)c1 | 16.3
COc1ccc(NC(=S)N2CCC(c3nc4ccccc4[nH]3)CC2)c(OC)c1 | 9.6
Cc1c(NC(=O)COC(=O)Cn2cc(C(F)(F)F)ccc2=O)cccc1[N+](=O)[O-] | 4.72
O=C(Cn1c(=O)n(-c2cccc(C(F)(F)F)c2)c(=O)c2sccc21)NCC1CCCO1 (stereo not shown) | 14.8
C/C(=N\NC(=O)CNC(=O)C(c1ccccc1)c1ccccc1)c1ccc(C)cc1 | -2.57
CCOC(=O)c1c(/N=C/C2=C(O)CCCC2=O)sc(C)c1C | 1.06
COc1ccc(C2C(C(=O)c3ccco3)=C(O)C(=O)N2c2nnc(C)s2)cc1 (stereo not shown) | 4.17
C=CCNc1nc(-c2ccc(O)c(C(N)=O)c2)cs1.Cl | 6.17
CC(=O)N1N=C(c2c(-c3ccccc3)c3cc(Br)ccc3[nH]c2=O)CC1c1ccco1 (stereo not shown) | 7.81
Cn1c(-c2ccccc2)cc(=O)c2ccccc21 | 5.87
COC(=O)c1ccsc1-n1cc(C#N)c(=O)n(C)c1=O | 6.35
CCN(CC)c1ccc(/C=C(/C#N)C(=O)NCc2ccccc2)o1 | 11.8
CCN=C1SC(CC(=O)Nc2ccc(N3CCOCC3)cc2)C(=O)N1CC (stereo not shown) | 16.7
CN1CCN(c2ccccc2NC(=O)Cc2cn(C)c3ccccc23)CC1 | -4.11

Compound | hERG current change (%, negative = inhibition) at 1uM [%]
O=C(Nc1cnn(Cc2ccc(Cl)c(Cl)c2)c1)c1nc2ncccn2n1 | 8.67
COc1ccc(-c2ccc(CCC(=O)O)n2CC(=O)Nc2ccccc2C)cc1 | 12.8
O=C(NC1CCCCC1)C1CCCN(S(=O)(=O)c2ccc(Br)s2)C1 (stereo not shown) | 19
Br.CC(C)(C)c1ccc(CN2C3=NCCCN3c3ccccc32)cc1 | -79.7
O=C(/C(=N/O)n1cncn1)c1ccccc1Cl | 10.7
CCOC(=O)/C=C1\CN(Cc2cc(OC)c(OC)c(OC)c2)S(=O)(=O)c2ccccc21 | 5.36
O=C(Nc1ccc(Cl)cc1)Nc1ccccc1Sc1ncc([N+](=O)[O-])s1 | 10.8
O=C(CN1CCCCC1)n1c2ccccc2c2ccccc21 | 17.5
COc1ccc(-c2ccc(CCC(=O)O)n2-c2ccccc2OC)cc1 | 4.17
CCC(=O)NC(=S)Nc1ccccc1C(=O)OC | 11.6
CC1(C(=O)OCC(=O)Nc2ccccc2Cl)CC1(Cl)Cl (stereo not shown) | 4.95
CN(C(=O)CSc1nnc(C(F)(F)F)n1N)C1CCS(=O)(=O)C1 (stereo not shown) | 11.3
NNC(=O)COc1cccc(C(F)(F)F)c1 | 14.3
Cc1noc(/C=C/N(C)C)c1S(=O)(=O)N1CCCC(C(=O)NCc2cccs2)C1 (stereo not shown) | 6.81
Clc1ccc(OCCn2c(-c3ccco3)nc3ccccc32)cc1 | -19
CCOc1ccc(NC(=O)CN2CCN(CC(=O)Nc3ccc4c(c3)OCO4)CC2)cc1 | -80.9
O=C(N/N=C/c1ccncc1)c1ccccc1 | -1.94
CCOC(=O)c1cn2nc(Oc3ccc(C)cc3)ccc2n1 | 9.79
CCc1noc(C)c1C(=O)N(C)CC(=O)Nc1ccc(OC)cc1 | 10.9
O=C(CC1C(=O)NCCN1C(=O)Nc1ccc(Cl)cc1)Nc1ccc(F)cc1 (stereo not shown) | 5.18
CN(C)S(=O)(=O)c1ccc(N)c([N+](=O)[O-])c1 | 11.8
O=C(COc1ccc(Br)cc1Br)NC1CCCC1 | 3.41

Compound | hERG current change (%, negative = inhibition) at 1uM [%]
C=C1CCN([C@H](C(=O)OCc2ccc(C)cc2)C(C)C)S(=O)(=O)c2ccccc21 | 4.71
COC(=O)C1=C(N)OC2=C(C(=O)CC(C)(C)C2)C1c1ccoc1 (stereo not shown) | 2.42
CCc1ccccc1NC(=O)CNC(=O)CNC(=O)C1CCCCC1 | 10.3
Cc1nn(Cc2c(Cl)cccc2Cl)c(Cl)c1/C=N/NC(=O)c1cccnc1 | 10.7
O=C(NCc1cccc(Br)c1)C1CC2Cn3c(nc4ccccc43)C2N1Cc1ccccc1 (stereo not shown) | -5.17
CC1(C)Cc2cccc(C(=O)Nc3ccc(F)cc3F)c2O1 | 14.9
O=C(CCCCCN1C(=O)c2ccccc2C1=O)NCc1ccccn1 | 9.82
Fc1ccc(NC(=S)N2CCN(c3ccccn3)CC2)cc1Cl | 17.6
COc1ccc(CCNCc2ccc(OCC(=O)N3CCCCC3)c(OC)c2)cc1OC.Cl | 7.87
Cc1cc(Nc2ccc(F)c(F)c2)nc(-c2ccccc2O)n1 | 9.93
COCCn1c(Cc2ccccc2)nnc1SCC(=O)Nc1oc(C)c2c(C)n[nH]c(=O)c12 | 13.1
CCOC(=O)c1[nH]c2cc(OC)c(OC)cc2c1NC(=O)C(C)N1CCN(Cc2ccccc2)CC1 (stereo not shown) | -12.5
CCOC(=O)C1=C(C)Nc2ncnn2C1c1c[nH]c2ccccc12 (stereo not shown) | 8.18
CCOc1ccccc1N(CC(=O)Nc1ccc(C)cc1)S(C)(=O)=O | 10.6
Cc1ccc(CNC(=O)C2CCCN(S(=O)(=O)c3cccc4nonc34)C2)cc1 (stereo not shown) | 13.3
Cc1nnc(SCCN2C(=O)c3ccccc3C2=O)[nH]c1=O | 5.38
COc1ccc(S(=O)(=O)NCc2ccco2)cc1C(=O)N1CCCCC1 | 14.6
Cc1ccc(CNC(=O)C2CCC(=O)N(CCc3ccccn3)C2)s1 (stereo not shown) | 5.76
COC(=O)c1sc(S(=O)(=O)N2CCN(c3ccc(OC)cc3)CC2)c(C(=O)OC)c1C | -2.5
C/C=C\C=C/C(=O)Nc1cccc(C2=NOC3(C2)C[C@@H](C(N)=O)N(C(=O)/C=C/CC)C3)c1 (stereo partly shown) | 4.68
S=C(/N=c1/sccn1Cc1ccccc1)NC1CC1 | 16.7
CCc1cccc(N(C(=O)c2csnn2)C(C(=O)NC(C)(C)C)c2ccccn2)c1 (stereo not shown) | 10.7

Compound | hERG current change (%, negative = inhibition) at 1uM [%]
Cn1c(SCC(=O)Nc2ccc(N3CCOCC3)c(Cl)c2)nnc1C(O)c1ccccc1 (stereo not shown) | 1.78
CCOC(=O)CSc1nnc(Cc2ccccc2)n1-c1ccc(C)cc1 | 10.8
CCc1ccc(OCC(=O)Nc2ccc3oc(=O)ccc3c2)cc1 | 15.5
C#Cc1ccc(C(=O)NCc2ccc(N3CCCC3=O)cc2)cc1 | 2.7
CCCc1cc(=O)oc2cc(OCC(=O)N3C[C@H]4C[C@@H](C3)c3cccc(=O)n3C4)ccc12 | 10.5
CCOc1ccccc1C(=O)Nc1ccc(S(=O)(=O)Nc2nccc(C)n2)cc1 | 10.8
CCCCNc1nc2ccccc2nc1NS(=O)(=O)c1cccs1 | 9.75
CN(CC(=O)NCCCN1CCOCC1)S(=O)(=O)c1cc(Cl)ccc1Cl | 3.11
CC(CCc1ccccc1)NC(=O)CN(C)Cc1ccccc1F (stereo not shown) | -16.1
O=S(=O)(c1ccc2nc(SCc3ccc(Cl)cc3)[nH]c2c1)N1CCOCC1 | 0.297
O=C(Cn1c(=O)oc2ccccc21)Nc1ccccc1Cl | 12.1
CC(C)(C)C(=O)NC1=NN(c2c(Cl)cc(Cl)cc2Cl)C(=O)C1 | 21.5
COc1ccc(CCNC(=O)C2CCC(=O)N(C3CCCCCC3)C2)cc1 (stereo not shown) | 13.5
Cc1nnc(Sc2nc3ccccc3o2)c2ccccc12 | 14
COc1cc(-c2n[nH]c(=S)n2-c2ccc(C)cc2)cc(OC)c1OC | 11.3
Cc1c(-n2c(-c3ccccc3)nc3ccccc3c2=O)c(=O)n(-c2ccccc2)n1C | 9.63
O=C(Cc1ccccc1)NC1CCSc2ccccc21 (stereo not shown) | 14.2
C=CCC1(O)C(=O)N2C(=C1C(=O)OCC)c1ccc3ccccc3c1CC2(C)C (stereo not shown) | 15.6
C=CCNC(=S)Nc1ccc(Cl)c(S(=O)(=O)N2CCOCC2)c1 | 14.3
CC1CCc2c(sc3ncn(CC(=O)N=Nc4c(O)[nH]c5ccccc45)c(=O)c23)C1 (stereo not shown) | 4.31
Clc1ccc2c(c1)C(C1=NCCN1)c1ccccc1CS2.O=C(O)/C=C\C(=O)O (stereo not shown) | 1.39
O=C(NCCCc1ccncc1)C1CCC(=O)N(Cc2cccc(F)c2)C1 (stereo not shown) | 14.5
